# Source: PubChem BioAssay AID1346428 (National Center for Advancing Translational Sciences (NCATS), 2018)
# Values joined by “and” are separate entries in the source; they are usually repeats but may differ in a detail not shown here. Identical values can stand only once. The whole screen tested about 48,000 compounds, of which about 1,200 (2.5%) were called active. Not shown: some 2% with an inconclusive outcome.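 The calls were made as follows: active = activation of at least 60% and not above a set upper limit (about 1 call in 100 departs from these limits); inconclusive = activation of 40% to 60%, or above that upper limit; inactive = activation under 40%.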 The list shows a part of the results. The source holds several records for some structures; these can differ, active in one and inactive in another.
# Molecular target: Probable G-protein coupled receptor 32 (Homo sapiens) (UniProt O75388)
# Assay: qHTS for Agonists of Human Resolvin D1 Receptor DRV1; also: 0% is about no effect
# Conditions: CHO-K1 GPR32 beta-arrestin PathHunter luminescence, 90 min; at 76.9 µM; stronger effect = higher value; zero percent set by DMSO-only wells
# Summary of the method: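 Agonism was scored as beta-arrestin recruitment to ProLink-fused GPR32 in stably transfected CHO-K1 cells, giving a chemiluminescent beta-Gal signal; compounds were incubated 90 min at 37 °C.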
# UniProt O75388, sequence (O75388 whole entry, looked up): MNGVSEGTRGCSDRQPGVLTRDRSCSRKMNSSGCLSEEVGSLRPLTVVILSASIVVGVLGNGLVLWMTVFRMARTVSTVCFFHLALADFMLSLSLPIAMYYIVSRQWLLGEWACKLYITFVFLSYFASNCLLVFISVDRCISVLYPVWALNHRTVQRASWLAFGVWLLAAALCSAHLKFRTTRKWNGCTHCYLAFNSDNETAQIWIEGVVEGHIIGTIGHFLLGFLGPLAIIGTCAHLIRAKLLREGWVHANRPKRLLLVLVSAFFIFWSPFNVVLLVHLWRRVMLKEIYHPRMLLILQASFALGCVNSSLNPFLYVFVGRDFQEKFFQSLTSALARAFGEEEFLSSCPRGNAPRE
row,Compound,activation
1,CCOc1ccc(CCNC(=O)c2cn(C)c3ccc(S(=O)(=O)N4CCCCCC4)cc3c2=O)cc1OCC,inactive: -9.09%
2,COc1ccc(CNc2nc3c(-c4cccc(C)c4)nnn3c3ccccc23)cc1,inactive: -4.27%
3,CCOc1ccc(NC(=O)c2cnc(N3CCCC3)nc2C)cc1,inactive: -2.59%
4,CC(C)c1ccc(NC(=O)Cn2cc(S(=O)(=O)N3CCN(c4ccccc4F)CC3)c3ccccc3c2=O)cc1,inactive: -2.12%
5,CCOC(=O)c1c(C)[nH]c(C)c1S(=O)(=O)N(C)CC(=O)N1CCN(c2ccccc2)CC1,inactive: 0%
6,COc1ccccc1NC(=O)c1c(NCc2ccc(OC)c(OC)c2OC)sc2c1CCC2,inactive: -16.4%
7,Cc1cc2c(cc1NS(=O)(=O)c1ccc(F)cc1)n(C)c(=O)c(=O)n2C,inactive: -1.28%
8,CCN1CCOC(=O)C1CC(=O)Nc1cc(C)ccc1OC (stereo not drawn),inactive: -52.5%
9,Cc1cccc(NC(=O)c2ccc3snnc3c2)c1,inactive: -10.7%
10,Cc1ccc2nc(-c3ccc(Cl)c(NC(=O)COc4cccc(C)c4C)c3)oc2c1,inactive: -2.07%
11,CCOC(=O)c1sc(NC(=O)/C=C/c2ccc(C(C)C)cc2)c(C(=O)OCC)c1C,inactive: -3.62%
12,CCCc1cc(=O)[nH]c2nnc(SC(C)CC)n12 (stereo not drawn),inactive: 15%
13,CCN(CC)c1ccc(NC(=O)CCS(=O)(=O)c2cc3c(cc2Cl)NC(=O)CO3)c(C)c1,inactive: 5.11%
14,Cc1ccc2nc(N3CCN(c4cccc(C(F)(F)F)c4)CC3)c3nnnn3c2c1,inactive: 0.61%
15,CCc1cccc(C)c1NS(=O)(=O)c1cc2[nH]c(=O)c(=O)[nH]c2cc1C,inactive: -3.52%
16,CC(C)COc1ccc(C(=O)NCC2(N3CCN(C)CC3)CCCCC2)cc1,inactive: -22.5%
17,CCc1ccc2ncc3c(-c4ccccc4)nn(-c4ccccc4)c3c2c1,inactive: -7.12%
18,COCCNC(=O)Cn1nc(C)c2c(C)n(-c3ccc(C)cc3)nc2c1=O,inactive: -13.9%
19,CCc1ccc(NCc2cc3cc4c(cc3n(CC(=O)Nc3cccc(OC)c3)c2=O)OCO4)cc1,inactive: -43.8%
20,CCc1nnc(SCC(=O)Nc2ccccc2Cl)nc1CC,inactive: -16.7%
21,Cc1ccc(C)c(NC(=O)CC2NCCNC2=O)c1 (stereo not drawn),inactive: 2.08%

row,Compound,activation
1,Cc1cc(NS(=O)(=O)c2ccc(NC(=O)c3ccccc3C)cc2)nc(C)n1,inactive: -3.23%
2,COc1cccc(NC(=O)CSc2nnc3scc(-c4ccc(Cl)cc4)n23)c1,inactive: -10.8%
3,CC[N+](C)(C)c1cccc(O)c1,inactive: -3.08% and inactive: 4.63%
4,COc1ccc(N(C(=O)c2ccc(OC)c(OC)c2)S(=O)(=O)c2ccc(Cl)cc2)cc1,inactive: -0.473%
5,Cc1ccc(NC(=O)C2CCCN(c3nnc(-n4c(C)ccc4C)s3)C2)c(C)c1 (stereo not drawn),inactive: -27.7%
6,N#Cc1ccccc1Cn1c(=O)n(CCCC(=O)NCc2ccc3c(c2)OCO3)c(=O)c2sccc21,inactive: -16.9%
7,Cc1csc2nc(COC(=O)c3cccc(NC(=O)COc4ccc(Cl)cc4)c3)cc(=O)n12,inactive: -6.15%
8,O=C(CCCCn1c(=O)c2ccccc2n(Cc2ccccc2Cl)c1=O)NCCc1ccccc1,inactive: -11.4%
9,Cc1ccn2c(=O)cc(COc3ccc(NC(=O)COc4ccc(Cl)cc4)cc3)nc2c1,inactive: -2.87%
10,CCCN(CCC)C(=O)Cn1c(=O)n(-c2cccc(OC)c2)c(=O)c2c3c(sc21)CCCC3,inactive: -2.93%
11,CCCC(C(=O)NCc1cccc(Cl)c1)N1Cc2ccccc2C1=O (stereo not drawn),inactive: -4.36%
12,O=C(/C=C/c1ccccc1)N1CCN(Cc2cc(=O)n3nc(-c4ccccc4F)sc3n2)CC1,inactive: -9.12%
13,CC(C)(C)C(=O)Cn1c(=O)n(-c2ccc(Cl)cc2)c(=O)c2c3c(sc21)CCCC3,inactive: -23.6%
14,COc1cccc(CNC(=O)C(=O)NCC(c2ccco2)S(=O)(=O)c2cccs2)c1 (stereo not drawn),inactive: -16.7%
15,CCOc1ccccc1CNC(=O)C1CCN(C(=O)N2CC(CC)Oc3ccc(C)cc32)CC1 (stereo not drawn),inactive: -12.4%
16,CC(=O)N1CCc2cc(CNC(=O)Cc3ccc(F)cc3)ccc21,inactive: -7.8%
17,O=C(Cn1c(SCCOc2ccccc2)nc2ccccc21)N1CCOCC1,inactive: -16%
18,C[C@@H](NCCCc1cccc(C(F)(F)F)c1)c1cccc2ccccc12,inactive: 15.3%
19,COc1ccc(N2CC(NC(=O)/C=C\c3ccccc3)CC2=O)cc1 (stereo not drawn),inactive: -13.6%
20,Cc1cc(OCCn2cc(C(=O)c3cccs3)c3ccccc32)ccc1Cl,inactive: -23%
21,Cc1c(C(=O)OCCOc2ccccc2)[nH]c2c1C(=O)CC(c1ccccc1)C2 (stereo not drawn),inactive: 13.2%

row,Compound,activation
1,O=C(Nc1ccc2nc(SCC(=O)N3CCOCC3)sc2c1)c1cccc(Cl)c1,inactive: 2.25%
2,COc1ccc(NC(=O)Cn2c(=O)n(CCC(=O)NCc3ccccc3OC)c(=O)c3ccccc32)cc1Cl,inactive: 4.72%
3,Cc1ccc(Cn2ccn(Cc3ccccc3F)c(=O)c2=O)cc1,inactive: -19.9%
4,COc1ccc(Cl)cc1N(C)C(=O)c1ccc2c(=O)n3c(nc2c1)CCCCC3,inactive: -7.13%
5,Cc1cccc(N2CCN(CCCNc3ncnc4onc(-c5ccc(Cl)cc5)c34)CC2C)c1 (stereo not drawn),inactive: -12.1%
6,CSc1ccc(CCNC(=O)c2ccc(-c3nc(COc4ccccc4)c(C)o3)cc2)cc1,inactive: -9.91%
7,Cc1c(Cl)cccc1NC(=O)COCc1cc(-c2ccc3c(c2)OCO3)on1,inactive: -14.5%
8,COc1cccc(CNC(=O)CCc2c(C)nc3c(c(C)nn3-c3ccc(C)c(C)c3)c2C)c1,inactive: -0.975%
9,Cc1nc2c(-c3ccccc3)c(C)nn2c(C)c1CCC(=O)N1CCN(c2ccc(F)cc2)CC1,inactive: -21.7%
10,COc1ccc(CCNC(=O)CCn2c(=O)c3ccccc3n(Cc3cc(C)ccc3C)c2=O)cc1OC,inactive: -6.9%
11,COC(=O)Cn1nc(C)c2c(C)n(-c3ccccc3)nc2c1=O,inactive: -10.6%
12,CCCN1C(=O)c2[nH]nc(-c3ccccc3O)c2C1c1ccc(OCc2ccccc2)c(OC)c1 (stereo not drawn),inactive: 9.58%
13,C[C@@H](O)[C@H]1C(=O)N2C(C(=O)O)=C([C@H]3CCCO3)S[C@H]12,inactive: -3.78%
14,Cc1ccc(C(=O)Nc2cccc(OCc3cc(=O)n4c5c(sc4n3)CCCC5)c2)cc1,inactive: 14.3%
15,COc1cc(C(=O)N2CCN(c3ccc(Nc4ccc(C)cc4)nn3)CC2)cc(OC)c1OC,inactive: -5.58%
16,COc1cccc2c1cc1c(=O)n(CC(=O)NC3CCCCC3)nc(C)n12,inactive: -4.22%
17,CCOC(=O)c1ccc(NC(=O)Cn2c(=O)cc(C)c3c(C)nn(-c4cccc(F)c4)c32)cc1,inactive: -14%
18,OCCN1CCN(CC/C=C2/c3ccccc3Sc3ccc(C(F)(F)F)cc32)CC1,active: 61.7% and inactive: -26.1%
19,NC(=O)CSc1oc(-c2ccco2)nc1S(=O)(=O)c1ccc(Cl)cc1,inactive: -26.3%
20,Cc1ccc(NC(=O)c2cc3cc(C)ccc3n2C)cc1,inactive: 12.4%
21,Cc1nn(Cc2ccccc2Cl)c(C)c1NC(=O)c1cc(C(C)C)on1,active: 86.1%

row,Compound,activation
1,CCCc1cnc2c(c1SCC(=O)N1CCC(C)CC1)c(=O)n(C)c(=O)n2C,inactive: -9.26%
2,O=C(NCCc1ccccc1)c1sc2ncccc2c1-n1cccc1,inactive: -18%
3,Cc1ccc(NC(=O)C(Cc2ccccc2)NS(=O)(=O)c2ccc3c(c2)oc(=O)n3C)cc1F (stereo not drawn),inactive: 16.7%
4,O=C(Nc1nc2n(n1)C(c1ccc(F)cc1)C=C(c1ccccc1)N2)c1ccc(Cl)cc1 (stereo not drawn),inactive: -3.96%
5,Cc1ccc(N(CC(=O)N2CCN(c3ccccc3F)CC2)S(=O)(=O)c2c(C)noc2C)cc1,inactive: -15.8%
6,CCOC(=O)CSc1ccc2nnc(CCNS(=O)(=O)c3ccccc3)n2n1,inactive: -7.01%
7,Cc1ccc(CCNC(=O)C(NS(=O)(=O)c2ccc3c(c2)oc(=O)n3C)C(C)C)cc1 (stereo not drawn),inactive: 1.38%
8,O=C(Nc1cccc(C(=O)OCc2cc(=O)n3nc(C4CC4)sc3n2)c1)c1cccc(F)c1,inactive: 3.1%
9,COc1cc2c(cc1OC)C(c1ccc(F)cc1)N(c1cccc(C#N)c1)C(=O)C2 (stereo not drawn),inactive: 8.94%
10,Cn1c(=O)c(=O)n(C)c2cc(S(=O)(=O)N3CCCC3C(=O)Nc3ccccc3F)ccc21 (stereo not drawn),inactive: -14%
11,O=C(NCCc1ccccc1)c1ccc2c(c1)N(Cc1c(F)cccc1Cl)C(=O)CS2,inactive: -8.73%
12,CCOc1ccc(-n2c(SCC(=O)NCC3CCCO3)nc3c([nH]c4ccccc43)c2=O)cc1 (stereo not drawn),inactive: -11.7%
13,COc1ccc(Cn2ccn(Cc3cccc(C)c3)c(=O)c2=O)cc1,inactive: -6.74%
14,COc1cc2c(cc1OC)C(COc1ccc3c(C)cc(=O)oc3c1)N(C(=O)c1cccc(C)c1)CC2 (stereo not drawn),inactive: 4.66%
15,Cc1ccc(N(CC(=O)Nc2cccc(F)c2)S(=O)(=O)c2cccs2)cc1,inactive: -4.06%
16,COc1ccc(NC(=O)CSc2nncn3c2cc2oc(C)cc23)cc1OC,inactive: -4.1%
17,CCc1ccc(NC(=O)CSc2nccn2-c2ccc(OC)cc2)cc1,inactive: 0.156%
18,CC1(C(=O)Nc2cccc(Br)c2)Cc2ccccc2C(=O)O1 (stereo not drawn),inactive: 23.6%
19,CC(=O)N1CCCc2cc(S(=O)(=O)N3CCC(C(=O)NC4CCC(C)CC4)CC3)ccc21 (stereo not drawn),inactive: -0.528%
20,CNC(=O)C1CCC(Cn2c(=O)c3sccc3n(Cc3ccc(F)cc3)c2=O)CC1 (stereo not drawn),inactive: 10.5%
